Data taken from PubChem BioAssay AID1030 (National Center for Advancing Translational Sciences (NCATS), 2008).
Values joined by “and” are separate entries in the source; they are usually repeats but may differ in a detail not shown here. Identical values can stand only once. In all, about 220,000 compounds went through this assay and about 16,000 (7.3%) were called active. The inconclusive results got no clear call from the source; some entries with a clear call stand among them for comparison. Calls follow the shape of the dose curve; as a rule, active = well fitted inhibition curve with a large enough effect (not every such curve was filed as active); inconclusive = small, poorly fitted or top-dose-only effect, or another doubt; inactive = no such curve, though single readings can be large or run the other way. No potency is given beside an inconclusive call; the fits are too rough.

target: Aldehyde dehydrogenase 1A1 (Homo sapiens) (UniProt P00352); test: qHTS Assay for Inhibitors of Aldehyde Dehydrogenase 1 (ALDH1A1); details: Purified ALDH1A1, NADH fluorescence, propionaldehyde substrate; series mostly up to 75.3 µM; activity, negative = inhibition: at the top concentration;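 as to activity, negative = inhibition: plate controls were no enzyme wells and a reference inhibitor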
UniProt P00352, sequence (P00352 whole entry, looked up): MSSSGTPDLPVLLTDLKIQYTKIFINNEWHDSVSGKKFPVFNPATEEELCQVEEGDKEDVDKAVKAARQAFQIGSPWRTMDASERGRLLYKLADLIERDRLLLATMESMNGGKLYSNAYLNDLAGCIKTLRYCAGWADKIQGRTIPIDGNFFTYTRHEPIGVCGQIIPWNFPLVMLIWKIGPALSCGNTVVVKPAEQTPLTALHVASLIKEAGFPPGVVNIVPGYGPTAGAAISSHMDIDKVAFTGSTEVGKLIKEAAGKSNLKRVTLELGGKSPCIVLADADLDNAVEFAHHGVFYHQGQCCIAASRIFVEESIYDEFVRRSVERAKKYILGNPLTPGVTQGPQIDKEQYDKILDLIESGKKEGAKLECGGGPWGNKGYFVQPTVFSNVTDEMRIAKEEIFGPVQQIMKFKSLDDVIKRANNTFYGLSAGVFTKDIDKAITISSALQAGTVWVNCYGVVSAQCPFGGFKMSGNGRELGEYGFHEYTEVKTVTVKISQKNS
Potency is read from the fitted curve at half-maximal effect; tags tell the direction and shape of the fitted curve.

Row | SMILES | Potency | activity, negative = inhibition
1 | CCCS(=O)(=O)c1ccc(COC(=O)c2ccc(NC(C)=O)cc2)cc1 | inconclusive [inhibitor, single point] | 
2 | CCOC(=O)c1sc(N)c(C#N)c1CSc1nnc(C2CCCCC2)n1N | inconclusive [inhibitor, single point] | 
3 | Cc1ccc(Nc2nnc(C(C)(C)C)c(=O)n2N)cc1 |  | inactive: 12.2%
4 | O=C(Nc1ccc(Br)c(Cl)c1)C1CC1 |  | inactive: -12.7%
5 | O=C(NCCc1ccccc1)c1ccc2nc(-c3ccco3)c(-c3ccco3)nc2c1 | inconclusive [inhibitor, partial curve] | 
6 | S=c1[nH]c2ccccc2s1 | active: 8.91 µM and active: 10 µM and active: 11.2 µM | 
7 | CSc1nc(N)nc(SCC(=O)c2ccccc2)c1C#N | inconclusive [inhibitor, partial curve] | 
8 | COc1ccc(-n2c(SCC(=O)Nc3ccc4c(c3)OCO4)nc3c(c2=O)SCC3)cc1 | inconclusive [inhibitor, single point] | 
9 | CN=C(Nc1ccc(Cl)cc1)c1ccc(C(F)(F)F)cc1 |  | inactive: 11.5%
10 | NC(=O)c1nn(-c2cccc(Cl)c2)c(=O)cc1O |  | inactive: 2.83%
11 | O=C(CSC(=S)N1CCOCC1)Nc1nc(=O)c2ccccc2s1 | active: 6.31 µM | 
12 | O=C(NNC(=S)NC(=O)c1ccco1)c1ccc(NC(=O)c2ccccc2)cc1 |  | inactive: -13.5%
13 | Cc1cnc(-c2nnc(N(C)C(=O)c3cccnc3)s2)cn1 | inconclusive [inhibitor, single point] | 
14 | O=C1CC(N2CCN(c3nc4ccccc4s3)CC2)C(=O)N1Cc1cccs1 (stereo unspecified) | active: 22.4 µM | 
15 | COCC(=O)N1CCC2(CCN(Cc3ccccc3)CC2)CC1 |  | inactive: -3.93%
16 | O=C(COc1ccc(Cl)cc1)Nc1nnc(-c2ccc3c(c2)CCCC3)o1 |  | inactive: 2.7%
17 | CCc1ccc(N(CC(=O)NCc2ccc(F)cc2)C(=O)c2csnn2)cc1 | inconclusive [inhibitor, single point] | 
18 | O=C(NCCNCCO)c1c(O)c2cccc3c2n(c1=O)CCC3 | inconclusive [inhibitor, single point] | 
19 | OCCCCNc1cccc2ccccc12 | inconclusive [inhibitor, partial curve] | 
20 | CCCCC1CC(C)(C(=O)CSc2nc3ccccc3s2)OC1=O (stereo unspecified) | inconclusive [inhibitor, full curve] | 
21 | OCCC1CN(Cc2ccccc2OC2CCCC2)CCN1Cc1ccsc1 (stereo unspecified) | inconclusive [inhibitor, single point] | 
22 | Cc1ccc(NS(=O)(=O)c2cc(NC(=O)c3ccc4c(c3)NC(=O)CS4)ccc2Cl)c(C)c1 | active: 10 µM | 
23 | O=C(CSc1nnc(-c2ccccc2)n1Cc1ccccc1)NNC(=O)c1ccccc1O |  | inactive: -6.96%
24 | COc1cccc(CN2CCN(S(=O)(=O)c3ccc(NC(C)=O)cc3)CC2)c1OC |  | inactive: 0.481%
25 | CCCCNC(=O)C1CCCN1C(=O)NC1CCCCC1 (stereo unspecified) |  | inactive: 3.59%
26 | CN(C)CCC(=O)c1ccc(Cl)cc1 | active: 0.112 µM | 

Row | SMILES | Potency | activity, negative = inhibition
27 | Cc1nn(Cc2ccc([N+](=O)[O-])cc2)c(=O)n1-c1c(F)cccc1F | inconclusive [inhibitor, partial curve] | 
28 | CCOc1ccc(N(C(=O)Cn2nnc3ccccc32)C(C(=O)NC(C)(C)CC)c2cccn2C)cc1 (stereo unspecified) |  | inactive: 0.284%
29 | C=CCN(c1ccc(Cl)cc1)S(=O)(=O)c1cccc(C(=O)OCC(=O)N(C)C)c1 |  | inactive: -5.46%
30 | COCCNC(=O)C(OC(=O)c1cccs1)c1ccc(F)cc1 (stereo unspecified) |  | inactive: 3.83%
31 | COC(=O)c1ccc(C(=O)OC)c(NC(=O)CN2CCN(c3ccccc3)CC2)c1 | inconclusive [inhibitor, partial curve] | 
32 | COC(=O)Oc1ccccc1C(=O)O |  | inactive: -0.662%
33 | COCCCNC(=S)NNC(=S)Nc1cccc(Cl)c1 | active: 4.47 µM | 
34 | O=C(Nc1ccc(Cl)cc1C(=O)N1CCOCC1)c1cccc([N+](=O)[O-])c1 |  | inactive: 7.31%
35 | CCN(CC)C(=O)c1[nH]cnc1C(=O)N[C@@H](C)C(=O)OCc1ccccc1 |  | inactive: -2.16%
36 | Cc1ccc(O)c(-c2cc(C(=O)Nc3ccc(S(=O)(=O)N4CC(C)OC(C)C4)cc3)[nH]n2)c1 (stereo unspecified) |  | inactive: 2.93%
37 | N#Cc1cc2c(nc1SCC(=O)NCc1ccc3c(c1)OCO3)CCCCC2 | inconclusive [inhibitor, partial curve] | 
38 | N#C/C(=C\c1ccc(O)c(O)c1)S(=O)(=O)c1ccccc1 | inconclusive [inhibitor, single point] | 
39 | CCOC(=O)C1CCCCN1Cc1cccc(C(F)(F)F)c1 (stereo unspecified) | inconclusive [inhibitor, single point] | 
40 | CC1(C)CC(=O)C(C=NCC(O)c2ccccc2)=C(O)C1 (stereo unspecified) | inconclusive [inhibitor, single point] | 
41 | CC(=O)NC(CCCNC(=S)NC1CCCCC1)C(=O)O (stereo unspecified) |  | inactive: -0.452%
42 | O=C(COC(=O)Cn1cnc2ccccc21)NCCc1ccc(Cl)cc1 | active: 12.6 µM | 
43 | COc1ccc2cc(/C=N/NC(=O)c3ccc(CN(c4ccc(C)c(C)c4)S(C)(=O)=O)cc3)c(Cl)nc2c1 | inconclusive [inhibitor, partial curve] | 
44 | O=S(Cc1cc(Sc2ccccc2)nc(-c2ccccc2)n1)c1ccccc1 (stereo unspecified) |  | inactive: -11.5%
45 | Clc1ccc(Cn2ncc3c(N4CCCCC4)ncnc32)c(Cl)c1 | inconclusive [inhibitor, single point] | 
46 | CCOC(=O)N1CCC(n2c(SCC(=O)Nc3nccs3)nc3ccsc3c2=O)CC1 |  | inactive: 20%
47 | COc1ccc(CCNC(=O)CCCOc2ccc(C)cc2)cc1OC | active: 28.2 µM | 
48 | c1ccc(Cn2nnnc2C(c2cccs2)N2CCc3ccccc3C2)cc1 (stereo unspecified) | inconclusive [inhibitor, partial curve] | 
49 | COC(=O)c1c(NC(=S)Nc2ccc(CC(=O)O)cc2)sc(C)c1C | active: 25.1 µM | 
50 | CCOc1cccc(C(=O)NC(=S)Nc2cccc(NC(=O)c3ccccc3Cl)c2)c1 | active: 1.41 µM | 
51 | NS(=O)(=O)c1ccc(Nc2nc3ccccc3nc2NS(=O)(=O)c2cccc([N+](=O)[O-])c2)cc1 |  | inactive: 7.27%
